# Paper PMC4336329 (PLoS ONE, 2015)
# Screen size: about 310,000 compounds; about 14,000 (4.5%) showed an effect of 50% or more. The effect is printed as a negative number. This is one part of the list.
# Target: human ether-à-go-go-related gene (hERG) potassium channel (human, UniProt Q12809)
# Assay: primary screen, population patch clamp on CHO cells stably expressing hERG
# 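Note: peak tail current of the secondary pulse compared with the same well before compound.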
# Chain of human ether-à-go-go-related gene (hERG) potassium channel (Q12809 whole entry, looked up): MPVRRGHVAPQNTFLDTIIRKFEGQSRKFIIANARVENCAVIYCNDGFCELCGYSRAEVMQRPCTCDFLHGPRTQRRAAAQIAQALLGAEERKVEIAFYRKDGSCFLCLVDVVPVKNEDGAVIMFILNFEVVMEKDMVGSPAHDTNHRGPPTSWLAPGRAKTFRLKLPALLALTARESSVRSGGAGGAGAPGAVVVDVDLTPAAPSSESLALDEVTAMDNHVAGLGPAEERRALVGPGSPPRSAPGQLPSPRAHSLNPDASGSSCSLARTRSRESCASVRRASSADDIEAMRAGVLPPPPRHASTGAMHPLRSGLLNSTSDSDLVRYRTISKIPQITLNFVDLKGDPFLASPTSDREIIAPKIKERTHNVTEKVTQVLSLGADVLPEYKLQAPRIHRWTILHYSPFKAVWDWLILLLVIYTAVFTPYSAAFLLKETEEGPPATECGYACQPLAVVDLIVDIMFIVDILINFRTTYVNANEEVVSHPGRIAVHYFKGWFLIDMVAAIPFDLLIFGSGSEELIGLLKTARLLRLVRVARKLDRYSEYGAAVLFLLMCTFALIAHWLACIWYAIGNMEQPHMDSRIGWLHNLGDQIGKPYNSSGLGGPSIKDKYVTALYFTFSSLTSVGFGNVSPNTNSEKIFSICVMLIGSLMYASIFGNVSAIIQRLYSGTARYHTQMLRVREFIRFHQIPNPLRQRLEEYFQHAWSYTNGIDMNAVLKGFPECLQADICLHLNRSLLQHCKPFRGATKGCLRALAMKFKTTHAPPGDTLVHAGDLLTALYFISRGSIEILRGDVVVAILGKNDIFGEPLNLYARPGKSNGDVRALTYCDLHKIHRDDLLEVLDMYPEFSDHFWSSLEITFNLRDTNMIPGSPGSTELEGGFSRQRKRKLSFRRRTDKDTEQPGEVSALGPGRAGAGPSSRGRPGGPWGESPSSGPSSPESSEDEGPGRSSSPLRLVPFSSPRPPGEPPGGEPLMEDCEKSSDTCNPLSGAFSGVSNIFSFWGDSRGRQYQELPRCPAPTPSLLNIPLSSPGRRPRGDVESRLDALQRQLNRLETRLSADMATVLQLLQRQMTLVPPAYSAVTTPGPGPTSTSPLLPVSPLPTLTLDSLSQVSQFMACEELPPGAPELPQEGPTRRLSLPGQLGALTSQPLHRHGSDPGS
row,SMILES,"hERG current change (%, negative = inhibition) at 10uM"
1,Cc1[nH]n2c(=O)c3c(nc2c1-c1ccc(F)cc1)CCCC3,4.02%
2,COc1ccc(NS(=O)(=O)c2c(C)n(C)c(=O)n(C)c2=O)cc1,15.5%
3,COC(=O)c1ccc(NS(=O)(=O)NC(=O)c2cn(C)c3ccccc23)cc1,5.08%
4,CCOC(=O)c1sc(C)c(C(=O)NCCCN2CCOCC2)c1N,13.9%
5,O=C(CSc1nc2ccccc2o1)NCc1ccco1,-0.541%
6,Cc1cc(C)c(C)c(OCc2nc(-c3cccnc3)no2)c1,-8.4%
7,Cc1ccc(CN(CC(=O)NC2CCCC2)C(=O)CSc2nnc(COc3ccccc3)o2)cc1,12.2%
8,S=c1[nH]nc(COc2ccc(Cl)cc2Cl)n1-c1ccccc1,19.1%
9,C/C=C/n1ccnc1CC(O)(c1ccccc1)c1ccc(C)cc1 (stereo not drawn),-22.5%
10,O=C(c1cc2c(s1)CCCC2)N1CCN(S(=O)(=O)c2ccccc2)CC1,-9.82%
11,CN(c1ccc(C(=O)NCc2ccc3c(c2)OCO3)cc1)S(=O)(=O)c1ccccc1,-4.02%
12,CCCCN(CCCC)S(=O)(=O)c1c(C)[nH]c(=O)[nH]c1=O,13.9%
13,O=C(N/C(=C/c1ccccc1)C(=O)N1CCCCC1)c1ccco1,20.9%
14,COc1ccc2c(ccc[n+]2CC(=O)c2ccc(C)cc2)c1.[Br-],-1.8%
15,Oc1c(C(c2ccc(Cl)cc2)N2CCCC2)cc(Cl)c2cccnc12 (stereo not drawn),15.9%
16,CCN(C(=O)CSc1n[nH]c(-c2ccccc2)n1)c1c(N)n(Cc2ccccc2)c(=O)[nH]c1=O,8.55%
17,COc1ccc(NC(=O)CN2CCOCC2)cc1S(=O)(=O)N1CCCCC1,5.55%
18,COc1ccc(/C=C2\Sc3ccc(C(=O)NCCCN4CCCC4)cc3N(C)C2=O)cc1OC,-31.8%
19,COc1ccc2nc(NC(=O)CSc3n[nH]c(N)n3)sc2c1,-3.93%
20,CC(C)(C)NC(=O)c1cccc(NC(=O)c2ccc(NC(=O)c3ccco3)cc2)c1,-26.4%
21,Cc1cc(C(=O)NC2CC(C)(C)Cc3c2cnn3-c2ccccc2)n(C)n1 (stereo not drawn),-45.3%
22,CCN(CC)CCn1c(=N)n(CC(O)COc2ccccc2)c2ccccc21.Cl (stereo not drawn),-52.1%
23,Cc1ccc(-c2nc(NCc3ccco3)n(C(=O)c3ccco3)n2)cc1,3.98%

row,SMILES,"hERG current change (%, negative = inhibition) at 10uM"
1,CC(OC(=O)c1ccco1)C(=O)NCc1cccs1 (stereo not drawn),3.86%
2,COCCNC(=O)c1ccc(C2SCC(=O)N2CCc2ccccc2)cc1 (stereo not drawn),16.1%
3,COc1cccc(-c2nnn(CC(=O)O)n2)c1,9.1%
4,COc1ccc(CCC(=O)NCC(c2ccco2)N2CCc3ccccc32)cc1 (stereo not drawn),-44.2%
5,COc1cc(-c2nc(S(=O)(=O)c3ccccc3)c(N3CCOCC3)o2)cc(OC)c1OC,-3.94%
6,CC(OC(=O)c1cnccn1)C(=O)c1ccccc1 (stereo not drawn),8.33%
7,CC(C)Sc1cc(N2CCOCC2)nc(-c2ccc(Cl)cc2)n1,15.2%
8,OCCN1CCN(c2nc(N3CCCCC3)nc(N3CCCCC3)n2)CC1,-4.04%
9,CNC(=O)c1ccsc1NC(=O)CCS(=O)(=O)c1ccc(C)cc1,-1.91%
10,Nc1c2c(nc3c1CCC3)CCCC2,-0.974%
11,Cc1ccc(CCNC(=O)C2=CCN(S(=O)(=O)c3ccccc3)CC2)cc1,-30.7%
12,Cc1cc(F)ccc1NS(=O)(=O)c1cccc2nsnc12,-6.94%
13,N#C/C(=C\c1cc(Cl)ccc1O)C(=O)NC1CCCCC1,-2.17%
14,CCN(CC)S(=O)(=O)c1cccc2c(N(C)C)cccc12,-35.6%
15,Cc1ccc(OC2=NS(=O)(=O)c3ccccc32)cc1,6.41%
16,CC(C)(C)c1ccc(CN2C(=O)CN=C(c3ccccc3)c3ccccc32)cc1,-1.16%
17,Cc1noc(C)c1NC(=O)NC(c1ccccc1)c1ccccc1,-11.3%
18,CC(=O)N1CCN(C(=S)NC(=O)c2c(-c3ccccc3Cl)noc2C)CC1,6.07%
19,Cn1ncc(Cl)c(Oc2ccc(Cl)cc2)c1=O,-17%
20,CC(C)CN1CCNC(=O)C1CC(=O)NCc1cnn(-c2cccc(F)c2)c1 (stereo not drawn),19.2%
21,Cc1cc(C(=O)COc2ccc(C#N)cc2)c(C)n1-c1ccc2c(c1)OCO2,-16.7%
22,COc1ccccc1NC(=O)CSc1nc2sc(C)c(C)c2c(=O)n1Cc1ccco1,8.79%
